# From the supplement of paper PMC9174493
# Counter-ions that a name gives are not always drawn. The list shows a part of the results. Single values of this set are uncertain. Values with irradiation are relative to irradiated vehicle.
# Tested on: A549-Dual
# Test: ISRE reporter (Lucia luciferase) activity, viability-corrected, relative to vehicle (fold change vs vehicle); higher = more activation of STING-IRF / NF-kB immune response reporter
# Conditions: 3 µM; irradiation: none
row,SMILES,ISRE reporter
1,CCC(=O)OCC(=O)C1(OC(=O)CC)C(C)CC2C3CCC4=CC(=O)C=CC4(C)C3(Cl)C(O)CC21C (centres undefined) [Beclomethasone dipropionate],0.29
2,CC(=O)Nc1ccc(OC(=O)c2ccccc2OC(C)=O)cc1 [Benorylate],0.984
3,Nc1ccccc1NC(=O)c1ccc(CNC(=O)OCc2cccnc2)cc1 [Entinostat (MS-275)],1
4,COc1cc(N2CCC(N3CCN(C)CC3)CC2)ccc1Nc1ncc(Cl)c(Nc2ccccc2P(C)(C)=O)n1,0.936
5,Cc1c(-c2ccc(-c3ccccc3F)cc2)nc2ccc(F)cc2c1C(=O)O [Brequinar],1.34
6,CCC1/C=C(\C)CC(C)CC(OC)C2OC(O)(C(=O)C(=O)N3CCCCC3C(=O)OC(/C(C)=C/C3CCC(Cl)C(OC)C3)C(C)C(O)CC1=O)C(C)CC2OC (centres undefined) [Pimecrolimus],1.23
7,COC(=O)/C=C/C(=O)OC [Dimethyl Fumarate],1.01
8,Cc1cc(Nc2ncc(Cl)c(Nc3ccccc3S(=O)(=O)C(C)C)n2)c(OC(C)C)cc1C1CCNCC1 [Ceritinib (LDK378)],0.902
9,Nc1nc(Cl)nc2c1ncn2C1CC(O)C(CO)O1 (centres undefined) [Cladribine],4.03
10,CC12CCC(=O)C=C1CCC1C2C(O)CC2(C)C1CCC2(O)C(=O)CO (centres undefined) [Hydrocortisone],0.425
11,Cc1coc2c1C(=O)C(=O)c1c-2ccc2c(C)cccc12 [Tanshinone I],0.836
12,Cn1cnc([N+](=O)[O-])c1Sc1ncnc2nc[nH]c12 [Azathioprine],0.758
13,O=c1ccc2cc3ccoc3cc2o1 [Psoralen],0.931
14,CCC(=O)NS(=O)(=O)c1ccc(-c2c(-c3ccccc3)noc2C)cc1 [Parecoxib],0.965
15,COc1ccc(-c2ccc3cc(C(=O)O)ccc3c2)cc1C12CC3CC(CC(C3)C1)C2 [Adapalene],1.23
16,CCC(C(=O)O)c1ccc(N2Cc3ccccc3C2=O)cc1 (centres undefined) [Indobufen],0.884
17,COC1CC2CCC(C)C(O)(O2)C(=O)C(=O)N2CCCCC2C(=O)OC(C(C)CC2CCC(O)C(OC)C2)CC(=O)C(C)/C=C(\C)C(O)C(OC)C(=O)C(C)CC(C)/C=C/C=C/C=C/1C (centres undefined) [Rapamycin (Sirolimus)],1.52
18,COc1ccc(C2CNC(=O)C2)cc1OC1CCCC1 (centres undefined) [Rolipram],0.868
19,Nc1nc(N)c2nc(-c3ccccc3)c(N)nc2n1 [Triamterene],0.985
20,CN(C)CCN1C(=O)c2cccc3cc(N)cc(c23)C1=O [Amonafide],1.99
21,CN1CCCC1CCOC(C)(c1ccccc1)c1ccc(Cl)cc1.O=C(O)/C=C/C(=O)O (centres undefined) [Clemastine Fumarate],1.81
22,CC12C=CC(=O)C=C1CCC1C3CC(O)C(O)(C(=O)CO)C3(C)CC(O)C12F (centres undefined) [Triamcinolone],0.297
23,CC1CC2C3CCC4=CC(=O)C=CC4(C)C3C(=O)CC2(C)C1(O)C(=O)CO (centres undefined) [Meprednisone],0.89
24,CCS(=O)(=O)O.COC(=O)c1ccc2c(c1)NC(=O)/C2=C(\Nc1ccc(N(C)C(=O)CN2CCN(C)CC2)cc1)c1ccccc1 [Nintedanib Ethanesulfonate Salt],1.1
25,CCCCCCCCCCCCCCCCCCOP(=O)([O-])OC1CC[N+](C)(C)CC1 [Perifosine (KRX-0401)],0.975
26,CCC1(O)CC2CN(CCc3c([nH]c4ccccc34)C(C(=O)OC)(c3cc4c(cc3OC)N(C=O)C3C(O)(C(=O)OC)C(OC(C)=O)C5(CC)C=CCN6CCC43C65)C2)C1 (centres undefined) [Vincristine],0.744
27,Cl.Nc1ccn(C2OC(CO)C(O)C2O)c(=O)n1 (centres undefined) [Cytarabine hydrochloride],2.05
28,CC(=O)OC(C)C(C)C(=O)OCC12C3CC4(C)C(=CCC5C6(C)CCC(OC7OC(C(=O)[O][Na])C(OC8OC(CO)C(O)C(O)C8O)C(O)C7OC7OCC(O)C(O)C7O)C(C)(CO)C6CCC54C)C1CC(C)(C)C(O3)C2O (centres undefined) [Sodium Aescinate],0.972
29,CCC(=O)OC1(C(=O)SCF)C(C)CC2C3CC(F)C4=CC(=O)C=CC4(C)C3(F)C(O)CC21C (centres undefined) [Fluticasone propionate],0.227
